# Results as given in PubChem BioAssay AID1240 (Sanford-Burnham Center for Chemical Genomics, 2008).
# About 800 (1.6%) of roughly 50,000 compounds showed an effect of 50% or more. This is one part of the list.
# Molecular target: Bcl-2-like protein 10 (Homo sapiens) (UniProt Q9HD36)
# Assay: TR3 peptide-Bcl-B binding displacers, biochemical primary FP assay, phenotype converters (AID 1240);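 also: 0% = Bcl-B with tracer peptide and DMSO and 100% = tracer peptide lacking Bcl-B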
# Details: GST-Bcl-B / FITC-TR3 peptide fluorescence polarization; stronger effect = higher value; compound at 3.75 mg/L
# UniProt Q9HD36, sequence (Q9HD36 whole entry, looked up): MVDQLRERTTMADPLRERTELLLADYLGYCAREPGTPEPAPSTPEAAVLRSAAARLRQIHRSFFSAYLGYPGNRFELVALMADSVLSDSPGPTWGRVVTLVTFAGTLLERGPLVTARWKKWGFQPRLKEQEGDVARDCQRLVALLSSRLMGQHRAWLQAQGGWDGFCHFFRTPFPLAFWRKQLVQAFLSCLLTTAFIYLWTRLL
row,SMILES,displacement
1,O=C(Nc1ccccc1)Nc1nnc(SCCOc2ccccc2)s1,9.8%
2,CCN1C(=O)c2cccc3c(NC(=O)c4ccc(S(=O)(=O)N5CCOCC5)cc4)ccc1c23,8.7%
3,CNC(=O)CN(c1ccc(OC)cc1OC)S(C)(=O)=O,17.7%
4,O=C(NCCO)C(=O)Nc1nc(C23CC4CC(CC(C4)C2)C3)cs1,-23.5%
5,CC1CCN(C2=NC(=O)/C(=C/c3cccc(O)c3)S2)CC1,-14.9%
6,COc1ccc(C2CC(C(F)(F)F)n3ncc(C(=O)N(C)Cc4ccccc4)c3N2)cc1OC (stereo not drawn),3.7%
7,Cc1ccc(Cl)cc1NC(=O)Cc1ccccc1[N+](=O)[O-],2.8%
8,Cn1c(/C=C2/C(=O)N(Cc3ccccc3)c3ccccc32)nc2ccccc2c1=O,-8.1%
9,O=C(Nc1ccc(Br)cc1)c1nc[nH]c1C(=O)O,-2.1%
10,COC(=O)C1=CNC=C(C(=O)OC)C1c1ccc(C(=O)OC)cc1,-6.4%
11,COc1ccc(/C=C2/SC(N3CCOCC3)=NC2=O)cc1,19.1%
12,NC(=O)c1ccccc1N=Cc1ccc([N+](=O)[O-])o1,-6.5%
13,Cc1ccccc1/C=C1/NC(=S)NC1=O,-6.2%
14,NNC(=O)c1sc2cccc(Cl)c2c1Cl,2%
15,Cc1c(OC(C)C(=O)O)ccc2c(-c3ccccc3)cc(=O)oc12 (stereo not drawn),8.3%
16,COC(=O)c1ccc(COc2ccc3c(-c4ccccc4)cc(=O)oc3c2)cc1,12.1%
17,CS(=O)(=O)N1CCN(Cc2ccccc2Cl)CC1,11%
18,COc1ccc(N(CC(=O)Nc2ccc(I)cc2)S(C)(=O)=O)cc1,13.1%
19,CCOc1cccc(/C=N/NC(=O)c2cc(-c3cccc4ccccc34)n[nH]2)c1O,-17%
20,C=CCC(CC=C)(NC(=O)/C=C/c1cccc([N+](=O)[O-])c1)c1ccccc1,-6.2%
21,CCc1c(C)c2ccc(OCC(C)=O)c(C)c2oc1=O,-4.5%
22,Cc1cc(C)c2sc(NC(=O)c3cccc(Cl)c3)nc2c1,11.9%
23,S=c1[nH]c2ccccc2n1CCOc1ccccc1,-13.2%
24,O=C(c1ccc2c(c1)OCO2)N1CCN(Cc2ccccc2)CC1,1.9%
25,COc1cccc(C(=O)NNC(=O)COc2ccc(C(C)(C)C)cc2)c1,-7.4%

row,SMILES,displacement
1,C=CCn1c(-c2ccc(OCC)cc2)n[nH]c1=S,-3.8%
2,COc1cc(OC)c(OC)cc1CN1CCN(C2CCCC(C)C2)CC1 (stereo not drawn),2.7%
3,COc1ccc(NC(=O)c2ccccc2[N+](=O)[O-])cc1,4.9%
4,Cc1ccc2c(c1)C1C=CCC1C(c1ccc([N+](=O)[O-])cc1)N2 (stereo not drawn),12.2%
5,CCOc1ccc(S(=O)(=O)n2cnc(C)c2)c2ccccc12,-1.2%
6,CC1=C(C(=O)OC(C)C)C(c2ccc(OCC(N)=O)cc2)NC(=S)N1 (stereo not drawn),7.3%
7,O=C(Cc1ccc(F)cc1)NCC1CCCO1 (stereo not drawn),14.3%
8,O=C(CN1C(=O)C2CC=C(Cl)CC2C1=O)N1CCCC1 (stereo not drawn),-4.6%
9,O=c1/c(=C/C=C/c2ccccc2Cl)sc2nc3ccccc3n12,3.6%
10,CCOc1cccc(-c2cc(C(=O)Nc3nnc(C)s3)c3ccccc3n2)c1,135%
11,O=C(/C=C/c1ccc([N+](=O)[O-])o1)c1ccc(Br)cc1,1%
12,COc1cc(NC(=O)c2ccc(C(C)(C)C)cc2)c(OC)cc1Cl,-13.5%
13,Cc1ccc(C)c(COc2ccc3c4c(c(=O)oc3c2)CCC4)c1,7%
14,CCOC(=O)c1c(C)oc2ccc(OCc3cccc(F)c3)cc12,8.5%
15,O=C(Nc1ccc(Cl)cc1)c1ccc(N2CCCCCC2)c([N+](=O)[O-])c1,12.5%
16,COc1cc2c(cc1NCc1ccc(OC)c(OC)c1OC)oc1ccccc12,11.2%
17,O=[N+]([O-])c1ccc(-c2ccc(/C=N/Nc3nnc4c(n3)[nH]c3ccccc34)o2)cc1,7.8%
18,CC(C1CC1)N(C(=O)Nc1ccccc1Cl)c1ccccc1 (stereo not drawn),-4.5%
19,NS(=O)(=O)c1ccc(NC(=O)c2ccc([N+](=O)[O-])o2)cc1,15.9%
20,CC(=O)Cc1oc2ccc(O)cc2c1[N+](=O)[O-],13.2%
21,O=C(NCc1ccccc1)C1CCCCC1,-10.2%
22,CCCCN(C)Cn1[nH]c(=O)ccc1=O,1.2%
23,COc1ccc(O)c(/C=N/n2cnnc2)c1,15.1%
24,O=C(CCc1ccccc1)NC1C2CC3CC(C2)CC1C3 (stereo not drawn),-11.5%
25,COCC(=O)N/N=C(\C)CC(=O)Nc1cc(C)ccc1OC,-37.2%

row,SMILES,displacement
1,COc1ccc(-c2nc3sc(-c4ccc(OC)cc4)nc3s2)cc1,0.3%
2,O=S(=O)(NCCNS(=O)(=O)c1ccccc1)c1ccccc1,-3%
3,CCC(C)NCC(O)Cn1c2ccc(Cl)cc2c2cc(Cl)ccc21 (stereo not drawn),13.4%
4,CC(=O)N(C)c1ccc(NC(=O)/C=C/c2ccccc2)cc1,16.1%
5,C=CCN1C(=O)/C(=C\c2ccc(OCc3ccc(Cl)cc3)cc2)SC1=S,4.4%
6,COc1cc(/C=C2/SC(=S)N(c3ccccc3)C2=O)ccc1OC(=O)c1cccc(C)c1,9.4%
7,Cc1cccc(OCc2n[nH]c(=S)n2-c2ccccc2)c1,3.2%
8,COc1ccc(Br)cc1/C=C1\SC(N2CCCC2)=NC1=O,-10.6%
9,Nc1ccc2nc(SCC(=O)NCc3ccco3)sc2c1,8.7%
10,O=C(CCC(=O)N/N=C/c1ccc(Cl)s1)N/N=C/c1ccc(Cl)s1,5.9%
11,Cc1ccc(O)c(NC(=O)c2cc3nc(-c4ccccc4)cc(C)n3n2)c1,-2.1%
12,COc1ccc(/C=N/NC(=O)c2ccoc2C)c(OC)c1OC,-4.5%
13,COc1ccc(C2C3=C(CC(C)(C)CC3=O)Nc3ccccc3N2C(=O)CC(C)C)cc1 (stereo not drawn),-16.5%
14,Cc1cc(=O)oc2cc(OC(=O)C(c3ccccc3)c3ccccc3)ccc12,4.1%
15,Cc1ccc2nc(N3CCCCC3)nc(-c3ccccc3)c2c1,-0.8%
16,Oc1ccccc1/C=N/Nc1ncnc2c1cnn2Cc1ccccc1,-5.7%
17,COC(=O)c1ccc(C(=O)OC)c(NC(=O)COc2cc(C)ccc2C(C)C)c1,-1.3%
18,O=c1ccc(-c2nc3ccccc3[nH]2)n[nH]1,-0.5%
19,CC1=C(C(=O)OC(C)C)C(c2ccc(Br)s2)NC(=O)N1C (stereo not drawn),-13.8%
20,COc1ccc(/C=C(\C#N)C(=O)NC(=O)Nc2cccc(Cl)c2)cc1,1.1%
21,COC(=O)Cn1c(=N)n(Cc2ccccc2Cl)c2ccccc21,-3.9%
22,Cc1nnc(SCC(=O)Nc2c(C)n(C)n(-c3ccccc3)c2=O)s1,-6%
23,CCC(=O)Oc1ccc2oc(=O)cc(C)c2c1,16.1%
